Results on 28 molecules are retold here after the antibiotic and cytotoxicity screens of Wong et al. (2023).

For one test, the system named is HSkMC. The test is described as follows: cytotoxicity call (relative viability < 0.9). The note with it: 10 µM.
The subject of another test is HepG2. The test is described as follows: cytotoxicity call (relative viability < 0.9). The note with it: 10 µM.
Another test has as its system S. aureus RN4220. Description: growth inhibition call (relative growth <= 0.2). Conditions: 50 µM.

The other results are listed elsewhere or left out.

As to `Cc1ccc(S(=O)(=O)N(C)C[C@H]2Oc3c(NC(=O)Nc4cccc5ccccc45)cccc3C(=O)N([C@@H](C)CO)C[C@@H]2C)cc1`, the cytotoxicity call in the test with HSkMC and with HepG2 was “inactive” each time. In addition, the growth inhibition call in the test on S. aureus RN4220 was “inactive”.

As to `C[C@@H]1CN([C@H](C)CO)C(=O)Cc2cc(NC(=O)CCN3CCOCC3)ccc2O[C@H]1CN(C)C(=O)Nc1ccccc1`, the cytotoxicity call with HSkMC and in the test with HepG2 was “inactive” each time. Further, in the test with S. aureus RN4220, the growth inhibition call was “inactive”.

As for `C[C@@H]1CCCCO[C@H](CN(C)C(=O)Nc2ccccc2)[C@H](C)CN([C@@H](C)CO)C(=O)c2cc(NC(=O)c3ccncc3)ccc2O1`, the cytotoxicity call with HSkMC and in the test on HepG2 was “inactive” in each case. Moreover, the growth inhibition call in the test with S. aureus RN4220 is “inactive”.

As to `CC(C)Cc1ccc(CN2CC[C@@H](N)C2)cc1`, the cytotoxicity call in the test on HSkMC and in the test on HepG2 was “inactive” in each case. In the test on S. aureus RN4220, the growth inhibition call was “inactive”.

With `CC(C)N1C[C@H](C)[C@@H](CN(C)Cc2cccc(Cl)c2)Oc2c(NC(=O)c3ccncc3)cccc2C1=O`, the cytotoxicity call in the test with HSkMC and with HepG2 was “inactive” throughout. In addition, the growth inhibition call in the test with S. aureus RN4220 was “inactive”.

For the molecule `C[C@H]1CN([C@@H](C)CO)C(=O)c2cccc(NC(=O)Nc3ccccc3)c2O[C@@H]1CN(C)C(=O)Nc1ccc(C(F)(F)F)cc1`, the cytotoxicity call with HSkMC and in the test with HepG2 was “inactive” throughout. In the test with S. aureus RN4220, the growth inhibition call is “inactive”.

Turning to `Cc1ccc(S(=O)(=O)Nc2ccc3c(c2)CC(=O)N([C@@H](C)CO)C[C@H](C)[C@H](CN(C)Cc2ccc(C(F)(F)F)cc2)O3)cc1`, in the test with HSkMC, the cytotoxicity call was “active”. For the same molecule, in the test with HepG2, the cytotoxicity call is “inactive”. For the same molecule, in the test with S. aureus RN4220, the growth inhibition call is “inactive”.

Turning to `COC1C(=O)C2(C)C(OC)CC3OCC3(OC(C)=O)C2C(OC(=O)c2ccccc2)C2(O)CC(OC(=O)C(O)C(NC(=O)OC(C)(C)C)c3ccccc3)C(C)=C1C2(C)C` (centres undefined), the cytotoxicity call with HSkMC is “inactive”. The cytotoxicity call in the test on HepG2 was “active”. The growth inhibition call with S. aureus RN4220 is “inactive”.

As to `O=C(C[C@H]1C=C[C@@H](NS(=O)(=O)c2ccc(F)cc2)[C@@H](CO)O1)NCCN1CCCCC1`, the cytotoxicity call with HSkMC and with HepG2 was “inactive” throughout. Besides, the growth inhibition call with S. aureus RN4220 is “inactive”.

For `C[C@H]1CN([C@@H](C)CO)C(=O)Cc2cc(NS(=O)(=O)c3cccs3)ccc2O[C@H]1CN(C)S(=O)(=O)c1cn(C)cn1`, the cytotoxicity call in the test with HSkMC and in the test on HepG2 was “inactive” throughout. In addition, in the test with S. aureus RN4220, the growth inhibition call is “inactive”.

As for `CC(C)(C)C(=O)OCOP(=O)(COCCn1cnc2c(N)ncnc21)OCOC(=O)C(C)(C)C`, the cytotoxicity call with HSkMC is “inactive”. The cytotoxicity call with HepG2 was “active”. Further, the growth inhibition call with S. aureus RN4220 was “inactive”.

Regarding `c1ccc(C2=Nc3ccccc3N=C(c3ccccc3)C2)cc1`, the cytotoxicity call with HSkMC and in the test on HepG2 was “inactive” throughout. Moreover, in the test with S. aureus RN4220, the growth inhibition call was “inactive”.

`COCCNC(=O)C[C@H]1CC[C@@H]2[C@H](COC[C@@H](O)CN2C(=O)Nc2ccccc2OC)O1`: the cytotoxicity call with HSkMC and in the test with HepG2 was “inactive” in each case. For the same molecule, the growth inhibition call in the test on S. aureus RN4220 was “inactive”.

On to `COCCNC(=O)c1ccc(N2C[C@H]3C[C@@H](C2)c2cccc(=O)n2C3)c(NC(=O)c2ccc(OC)cc2)c1`, for which the cytotoxicity call with HSkMC and in the test with HepG2 was “inactive” each time. For the same molecule, the growth inhibition call in the test with S. aureus RN4220 was “inactive”.

Turning to `Cc1cc(O[C@@H](CCC(F)(F)F)c2ccc(C(=O)NCCC(=O)O)cc2)cc(C)c1-c1ccc(C(C)(C)C)cc1`, the cytotoxicity call in the test with HSkMC was “active”. Moreover, the cytotoxicity call with HepG2 was “inactive”. Moreover, the growth inhibition call in the test on S. aureus RN4220 is “active”.

With `Cn1cnc(CCNC(=O)C[C@@H]2CC[C@@H]3[C@H](COC[C@@H](O)CN3C(=O)C3CC3)O2)c1`, the cytotoxicity call in the test on HSkMC and in the test with HepG2 was “inactive” throughout. For the same molecule, in the test on S. aureus RN4220, the growth inhibition call was “inactive”.

For the molecule `Cc1noc(C)c1NC(=O)Nc1ccc2c(c1)C(=O)N([C@H](C)CO)C[C@@H](C)[C@H](CN(C)Cc1ccc(Cl)c(Cl)c1)OCCCC[C@H](C)O2`, the cytotoxicity call with HSkMC and in the test with HepG2 was “inactive” throughout. Besides, the growth inhibition call in the test on S. aureus RN4220 is “inactive”.

As to `COc1ccc(NC(=O)N(C)C[C@@H]2OCCCC[C@H](C)Oc3ccc(NS(=O)(=O)c4c(C)noc4C)cc3C(=O)N([C@@H](C)CO)C[C@@H]2C)cc1`, the cytotoxicity call in the test with HSkMC and in the test on HepG2 was “inactive” in each case. Moreover, the growth inhibition call with S. aureus RN4220 was “inactive”.

As for `O=C(/C=C/c1ccc(O)c(O)c1)O[C@@H]1O[C@H](CO)[C@@H](O)[C@H](O)[C@H]1O`, the cytotoxicity call in the test with HSkMC and in the test on HepG2 was “inactive” throughout. The growth inhibition call in the test on S. aureus RN4220 was “inactive”.

Consider `Cc1noc(C)c1S(=O)(=O)Nc1ccc2c(c1)CC(=O)N([C@H](C)CO)C[C@@H](C)[C@H](CN(C)Cc1ccccc1)O2`, for which the cytotoxicity call with HSkMC and with HepG2 was “inactive” throughout. In the test with S. aureus RN4220, the growth inhibition call was “inactive”.

As to `CN1C(=O)c2cc(NC(=O)Cc3cccs3)ccc2OC[C@@H]2O[C@H](CC(=O)NCCCN3CCOCC3)CC[C@H]21`, the cytotoxicity call in the test with HSkMC and in the test on HepG2 was “inactive” in each case. Besides, the growth inhibition call in the test on S. aureus RN4220 is “inactive”.

For the molecule `C[C@@H]1CN([C@@H](C)CO)C(=O)c2cc(-c3cccnc3)cnc2O[C@H]1CN(C)Cc1ccc(Oc2ccccc2)cc1`, the cytotoxicity call with HSkMC and in the test on HepG2 was “inactive” throughout. Besides, the growth inhibition call in the test on S. aureus RN4220 is “inactive”.

With `C[C@H](CO)N1C[C@H](C)[C@@H](CN(C)C(=O)Nc2ccc3c(c2)OCO3)Oc2c(NC(=O)Nc3cccc4ccccc34)cccc2C1=O`, the cytotoxicity call in the test on HSkMC and with HepG2 was “inactive” throughout. The growth inhibition call in the test with S. aureus RN4220 is “inactive”.

On to `CN(C)C(=O)C[C@H]1CC[C@H]2[C@@H](COc3ccc(NS(=O)(=O)c4cccc(F)c4)cc3C(=O)N2C)O1`, for which the cytotoxicity call in the test on HSkMC and in the test with HepG2 was “inactive” in each case. The growth inhibition call with S. aureus RN4220 is “inactive”.

On to `C[C@H](CO)N1C[C@H](C)[C@H](CN(C)Cc2ccc(Oc3ccccc3)cc2)Oc2ccc(NC(=O)Nc3cccc4ccccc34)cc2CC1=O`, for which the cytotoxicity call with HSkMC and in the test with HepG2 was “inactive” in each case. Also, the growth inhibition call in the test with S. aureus RN4220 is “inactive”.

Turning to `C[C@H]1CN([C@@H](C)CO)C(=O)Cc2cc(NC(=O)CCN3CCOCC3)ccc2O[C@@H]1CN(C)C(=O)Nc1ccccc1`, the cytotoxicity call with HSkMC and in the test on HepG2 was “inactive” each time. Moreover, the growth inhibition call with S. aureus RN4220 is “inactive”.

With `Cn1c(=O)c2c(nc(NCCN)n2Cc2ccc(Cl)cc2)n(C)c1=O`, the cytotoxicity call in the test on HSkMC (human skeletal muscle cells) and in the test on HepG2 was “inactive” in each case. Moreover, in the test with S. aureus RN4220, the growth inhibition call is “inactive”.

Consider `C[C@@H]1CN([C@H](C)CO)C(=O)c2cc(NC(=O)Nc3ccc(F)cc3)ccc2O[C@@H]1CN(C)C(=O)Nc1cccc2ccccc12`, for which the cytotoxicity call with HSkMC is “active”. The cytotoxicity call in the test with HepG2 was “inactive”. Further, the growth inhibition call with S. aureus RN4220 is “inactive”.
